According to PubChem BioAssay (Tox21):
Several values for one entry are separate records, joined by “and”; a condition that tells them apart may be missing. Equal entries are not always repeated. Inconclusive results, whose numbers are uncertain, are shown with a selection of clear calls. For part of these data: Potencies of inconclusive entries are doubtful fits and often do not repeat. Activity calls are given as the source filed them. Unless noted, the call rests on the fitted dose curve.

Tests used:
[1] = molecular target: Peroxisome proliferator-activated receptor delta (Homo sapiens) (UniProt Q03181); assay: qHTS assay to identify small molecule antagonists of the peroxisome proliferator-activated receptor delta (PPARd) signaling pathway (AID 743215; active means well fitted inhibition curve with a large enough effect in the signal ratio in the repeat runs, not every such curve was filed as active; inconclusive means weak or mixed curves, or effect the other way; inactive means no such curve, though single readings can be large or run the other way; the % refers to the signal ratio;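 further: cells stimulated with agonist L165041 at 300 nM final during compound exposure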; further: potency means the concentration at half of the fitted maximal effect; on ratio activity, negative = inhibition: on the % scale 0 is the no-effect control and ±100 the full control effect); details: HEK293H PPARd-UAS-bla, beta-lactamase FRET ratio, antagonist, 17 h; ratio activity, negative = inhibition: at 62 µM (top of the series) unless noted
How it was run: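 PPARd-bla HEK293H cells (UAS-bla reporter) preincubated 5 h, then given compound plus 300 nM final L165041 agonist for 17 h at 37 C. Beta-lactamase activity read by LiveBLAzer B/G FRET substrate fluorescence after 2 h at room temperature.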

[2] = qHTS assay to identify small molecule antagonists of the farnesoid-X-receptor (FXR) signaling pathway - cell viability counter screen (AID 743221; active means well fitted cell-killing curve with a large enough effect in the repeat runs, not every such curve was filed as active; inconclusive means weak or mixed curves, or effect the other way; inactive means no such curve, though single readings can be large or run the other way; further: potency means the concentration at half of the fitted maximal effect; nearly all actives have a fitted effect of over 50% in size); details: FXR-bla HEK293T viability, CellTiter-Glo luminescence, 16 h; activity change, negative = cytotoxicity: at 62.6 µM (top of the series)
How it was run: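 In GeneBLAzer FXR-UAS-bla HEK 293T cells stimulated with 50 uM chenodeoxycholic acid (final), compounds acted for 16 h at 37 C. Viability was assessed afterwards by CellTiter-Glo luminescence.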

[3] = molecular target: Vitamin D3 receptor (Homo sapiens) (UniProt P11473); assay: qHTS assay to identify small molecule antagonists of the vitamin D receptor (VDR) signaling pathway (AID 743223; active means well fitted inhibition curve with a large enough effect in the signal ratio in the repeat runs, not every such curve was filed as active; inconclusive means weak or mixed curves, or effect the other way; inactive means no such curve, though single readings can be large or run the other way; the % refers to the signal ratio; further: potency means the concentration at half of the fitted maximal effect; on activity change, negative = inhibition: on the % scale 0 is the no-effect control and ±100 the full control effect); details: VDR-UAS-bla HEK293T, beta-lactamase FRET ratio, 16 h
How it was run: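 Agonist 1alpha,25-dihydroxyvitamin D3 (3 nM in well) was added with each compound to VDR-bla cells preincubated 4 h. Cells stood 16 h at 37C, then FRET substrate 2 h at room temperature; fluorescence intensity recorded.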

[4] = qHTS assay to identify small molecule antagonists of the vitamin D receptor (VDR) signaling pathway - cell viability counter screen (AID 743225; active means well fitted curve in the direction sought with a large enough effect in the repeat runs; inconclusive means weak or mixed curves; inactive means no such curve, though single readings can be large; an effect the other way counts as inactive or inconclusive; further: potency means the concentration at half of the fitted maximal effect; nearly all actives have a fitted effect of over 50% in size); details: VDR-bla HEK293T viability, CellTiter-Glo luminescence, 16 h; viability change, negative = cytotoxic: at 61 µM (top of the series) unless noted
How it was run: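 Luminescent cell viability (CellTiter-Glo) in VDR-bla HEK 293T cells after 16 h compound exposure at 37C in the presence of 3 nM final 1-alpha,25-dihydroxy vitamin D3.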

[5] = qHTS assay to identify small molecule antagonists of the retinoid-related orphan receptor gamma (ROR-gamma) signaling pathway - cell viability counter screen (AID 1159520; active means well fitted curve in the direction sought with a large enough effect in the repeat runs; inconclusive means weak or mixed curves; inactive means no such curve, though single readings can be large; an effect the other way counts as inactive or inconclusive; further: nearly all actives have a fitted effect of over 50% in size; further: potency means the concentration at half of the fitted maximal effect); details: Tet-on RORgamma CHO cells viability, ATP luminescence, 16 h; series mostly up to 92.4 µM
How it was run: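 Tet-on ROR gamma CHO cells (1,000/well) were plated 4 hr, given compounds in DMSO for 2 hr at 37 C, then induced with 1 uM final doxycycline for 16 hr. Viability was read as ATP by CellTiter-Glo luminescence after 30 min.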

[6] = qHTS assay to identify small molecule agonists of the AP-1 signaling pathway (AID 1159526); details: ME-180 (cervical carcinoma) AP-1-bla reporter, beta-lactamase FRET ratio, 5 h; activation: at 76.8 µM (top of the series) unless noted; further: potency means the concentration at half of the fitted maximal effect; on activation: on the % scale 0 is the no-effect control and ±100 the full control effect
[7] = molecular target: Retinoic acid receptor RXR-alpha (Homo sapiens) (UniProt P19793); assay: qHTS assay to identify small molecule agonists of the RXR signaling pathway (AID 1159527); details: HEK293T RXRa-UAS-bla, beta-lactamase ratio, 16 h; further: nearly all actives have a fitted effect of over 35% in size; further: potency means the concentration at half of the fitted maximal effect
How it was run: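 Beta-lactamase reporter assay, agonist format. Engineered HEK 293T line, charcoal-stripped FBS at 2%, overnight (16 hr) exposure, fluorescence at 460 and 530 nm after 405 nm excitation.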

[8] = qHTS assay to identify small molecule agonists of the RXR signaling pathway - cell viability counter screen (AID 1159529; active means well fitted curve in the direction sought with a large enough effect in the repeat runs; inconclusive means weak or mixed curves; inactive means no such curve, though single readings can be large; an effect the other way counts as inactive or inconclusive; further: nearly all actives have a fitted effect of over 50% in size; further: potency means the concentration at half of the fitted maximal effect); details: RXR-alpha-bla HEK293T viability, CellTiter-Glo, 16 h; series mostly up to 76.8 µM
How it was run: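 Same-well viability check after the LiveBLAzer FRET read: CellTiter-Glo added, luminescence measured after 30 min at room temperature. Reporter HEK 293T cells had been treated with compounds for 16 hr following a 5 hr preincubation.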

[9] = molecular target: Bile acid receptor (Homo sapiens) (UniProt Q96RI1); assay: qHTS assay to identify small molecule antagonists of the farnesoid-X-receptor (FXR) signaling pathway (AID 743217; active means well fitted inhibition curve with a large enough effect in the signal ratio in the repeat runs, not every such curve was filed as active; inconclusive means weak or mixed curves, or effect the other way; inactive means no such curve, though single readings can be large or run the other way; the % refers to the signal ratio; further: potency means the concentration at half of the fitted maximal effect); details: HEK293T FXR-UAS-bla, beta-lactamase ratio, CDCA-stimulated, 16 h; activity change, negative = inhibition: at 62.6 µM (top of the series) unless noted
How it was run: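 FXR-UAS-bla HEK 293T cells (beta-lactamase reporter) given compound plus chenodeoxycholic acid (50 uM final), 16 h at 37C. LiveBLAzer B/G FRET substrate added for 2 h at room temperature; fluorescence read.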

[10] = molecular target: Vitamin D3 receptor (Homo sapiens) (UniProt P11473); assay: qHTS assay to identify small molecule agonists of the vitamin D receptor (VDR) signaling pathway (AID 743222); details: HEK293T VDR-UAS-bla, beta-lactamase FRET ratio, 16 h; activation: at 63.5 µM (top of the series) unless noted; further: potency means the concentration at half of the fitted maximal effect
How it was run: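 VDR-bla cells plated 4 h at 37 C, then exposed to compounds for 16 h at 37 C. Beta-lactamase reporter activity measured by fluorescence after 2 h room-temperature loading with LiveBLAzer B/G FRET substrate.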

[11] = qHTS assay to identify small molecule agonists of the vitamin D receptor (VDR) signaling pathway - cell viability counter screen (AID 743224; active means well fitted curve in the direction sought with a large enough effect in the repeat runs; inconclusive means weak or mixed curves; inactive means no such curve, though single readings can be large; an effect the other way counts as inactive or inconclusive); details: VDR-bla HEK293T viability, CellTiter-Glo luminescence, 16 h; activity change, negative = cytotoxicity: at 62.6 µM (top of the series)
How it was run: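 VDR-bla cells, 4 h after plating, exposed to compounds for 16 h at 37C; viability then read in the same wells as CellTiter-Glo luminescence after 30 min at room temperature, following the bla FRET read.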

[12] = qHTS assay to identify small molecule antagonists of the peroxisome proliferator-activated receptor delta (PPARd) signaling pathway - cell viability counter screen (AID 743213; active means well fitted curve in the direction sought with a large enough effect in the repeat runs; inconclusive means weak or mixed curves; inactive means no such curve, though single readings can be large; an effect the other way counts as inactive or inconclusive); details: PPARd-bla HEK293H viability, CellTiter-Glo luminescence, 17 h; viability change, negative = cytotoxic: at 62 µM (top of the series) unless noted
How it was run: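 Viability counter-screen, qHTS format: PPARd-bla HEK293H, L165041 300 nM final, 17 h compound exposure at 37 C, CellTiter-Glo luminescence after 30 min RT.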

[13] = qHTS assay to identify small molecule agonists of the farnesoid-X-receptor (FXR) signaling pathway - cell viability counter screen (AID 743218; active means well fitted curve in the direction sought with a large enough effect in the repeat runs; inconclusive means weak or mixed curves; inactive means no such curve, though single readings can be large; an effect the other way counts as inactive or inconclusive; further: nearly all actives have a fitted effect of over 45% in size; further: potency means the concentration at half of the fitted maximal effect); details: FXR-bla HEK293T viability, CellTiter-Glo luminescence, 16 h; viability change, negative = cytotoxic: at 62.6 µM (top of the series) unless noted
How it was run: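 FXR-UAS-bla HEK 293T cells exposed to compounds for 16 h at 37C. Cytotoxicity read in the same wells by CellTiter-Glo luminescence after 30 min at room temperature, following the beta-lactamase FRET read.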

[14] = molecular target: Peroxisome proliferator-activated receptor delta (Homo sapiens) (UniProt Q03181); assay: qHTS assay to identify small molecule agonists of the peroxisome proliferator-activated receptor delta (PPARd) signaling pathway (AID 743212); details: HEK293H PPARd-UAS-bla, beta-lactamase FRET ratio, 17 h; activation: at 62.6 µM (top of the series) unless noted; further: on the % scale 0 is the no-effect control and ±100 the full control effect
How it was run: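 GeneBLAzer PPARd UAS-bla HEK293H cells (beta-lactamase reporter under UAS control), plated and rested 5 h at 37 C, then exposed to compounds in DMSO at 37 C; LiveBLAzer B/G FRET substrate added, 2 h room temperature, fluorescence read.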

[15] = molecular target: Bile acid receptor (Homo sapiens) (UniProt Q96RI1); assay: qHTS assay to identify small molecule agonists of the farnesoid-X-receptor (FXR) signaling pathway (AID 743220; active means well fitted activation curve with a large enough effect in the signal ratio in the repeat runs, not every such curve was filed as active; inconclusive means weak or mixed curves, or effect the other way; the % refers to the signal ratio; further: potency means the concentration at half of the fitted maximal effect); details: HEK293T FXR-UAS-bla, beta-lactamase FRET ratio, 16 h; activation: at 62.6 µM (top of the series) unless noted
How it was run: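 Beta-lactamase reporter under UAS control in GeneBLAzer FXR HEK 293T cells (5000/well) measured with LiveBLAzer FRET substrate after 2 h at room temperature. Compound exposure lasted 16 h at 37C.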

[16] = qHTS assay to identify small molecule antagonists of the retinoid acid receptor (RAR) signaling pathway - cell viability counter screen (AID 1159551; active means well fitted curve in the direction sought with a large enough effect in the repeat runs; inconclusive means weak or mixed curves; inactive means no such curve, though single readings can be large; an effect the other way counts as inactive or inconclusive; further: potency means the concentration at half of the fitted maximal effect; nearly all actives have a fitted effect of over 35% in size); details: C3RL4 cells viability, ATP luminescence (CellTiter-Glo), 6 h; series mostly up to 92.4 µM
How it was run: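 C3RL4 RARE-luciferase cells, 1,000/well, incubated overnight, then dosed with compound plus 1 uM retinol (final). After 6 hr at 37 C, viability read by CellTiter-Glo ATP luminescence following 30 min at room temperature.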

[17] = activity change, negative = inhibition: at 61 µM (top of the series) unless noted
[18] = activation: at 76.8 µM (top of the series) unless noted
Tags describe the fitted curve by direction and shape or compound fluorescence and quenching.

UniProt Q03181, sequence (Q03181 whole entry, looked up): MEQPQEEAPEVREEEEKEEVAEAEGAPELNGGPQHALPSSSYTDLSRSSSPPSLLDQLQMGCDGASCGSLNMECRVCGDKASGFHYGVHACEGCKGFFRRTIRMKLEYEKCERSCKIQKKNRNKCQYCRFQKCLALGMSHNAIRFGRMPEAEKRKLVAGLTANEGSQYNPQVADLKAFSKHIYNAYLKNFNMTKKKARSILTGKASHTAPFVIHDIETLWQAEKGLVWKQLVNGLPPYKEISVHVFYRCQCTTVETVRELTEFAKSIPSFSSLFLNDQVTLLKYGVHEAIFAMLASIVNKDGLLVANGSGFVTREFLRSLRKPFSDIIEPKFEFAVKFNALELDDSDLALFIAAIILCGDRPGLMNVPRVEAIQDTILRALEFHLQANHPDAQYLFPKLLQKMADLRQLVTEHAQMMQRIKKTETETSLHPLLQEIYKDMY
UniProt P11473, sequence (P11473 whole entry, looked up): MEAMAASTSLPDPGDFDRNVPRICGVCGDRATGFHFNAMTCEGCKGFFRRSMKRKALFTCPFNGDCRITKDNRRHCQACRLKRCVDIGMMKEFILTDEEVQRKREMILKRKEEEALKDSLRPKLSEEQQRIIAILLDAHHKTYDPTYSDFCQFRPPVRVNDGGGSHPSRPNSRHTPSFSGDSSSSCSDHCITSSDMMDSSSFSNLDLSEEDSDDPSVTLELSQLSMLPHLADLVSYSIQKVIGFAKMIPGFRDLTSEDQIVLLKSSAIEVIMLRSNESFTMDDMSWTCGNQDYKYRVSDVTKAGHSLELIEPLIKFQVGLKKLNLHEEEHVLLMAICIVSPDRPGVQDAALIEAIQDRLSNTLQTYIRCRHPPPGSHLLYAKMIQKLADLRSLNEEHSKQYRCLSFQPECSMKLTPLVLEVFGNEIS
UniProt P19793, sequence (P19793 whole entry, looked up): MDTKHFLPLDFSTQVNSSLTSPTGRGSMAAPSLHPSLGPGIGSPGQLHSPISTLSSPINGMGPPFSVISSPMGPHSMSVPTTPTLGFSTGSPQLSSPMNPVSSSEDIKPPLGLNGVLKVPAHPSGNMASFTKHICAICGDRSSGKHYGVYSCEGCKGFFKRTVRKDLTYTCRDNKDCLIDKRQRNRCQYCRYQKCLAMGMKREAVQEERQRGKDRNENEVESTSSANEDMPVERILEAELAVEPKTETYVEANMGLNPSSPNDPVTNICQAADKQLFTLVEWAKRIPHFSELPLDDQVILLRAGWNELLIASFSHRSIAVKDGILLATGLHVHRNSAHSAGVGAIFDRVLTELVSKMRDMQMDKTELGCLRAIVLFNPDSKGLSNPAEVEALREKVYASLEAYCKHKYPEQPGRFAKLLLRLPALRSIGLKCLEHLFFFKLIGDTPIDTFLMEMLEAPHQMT
UniProt Q96RI1, sequence (Q96RI1 whole entry, looked up): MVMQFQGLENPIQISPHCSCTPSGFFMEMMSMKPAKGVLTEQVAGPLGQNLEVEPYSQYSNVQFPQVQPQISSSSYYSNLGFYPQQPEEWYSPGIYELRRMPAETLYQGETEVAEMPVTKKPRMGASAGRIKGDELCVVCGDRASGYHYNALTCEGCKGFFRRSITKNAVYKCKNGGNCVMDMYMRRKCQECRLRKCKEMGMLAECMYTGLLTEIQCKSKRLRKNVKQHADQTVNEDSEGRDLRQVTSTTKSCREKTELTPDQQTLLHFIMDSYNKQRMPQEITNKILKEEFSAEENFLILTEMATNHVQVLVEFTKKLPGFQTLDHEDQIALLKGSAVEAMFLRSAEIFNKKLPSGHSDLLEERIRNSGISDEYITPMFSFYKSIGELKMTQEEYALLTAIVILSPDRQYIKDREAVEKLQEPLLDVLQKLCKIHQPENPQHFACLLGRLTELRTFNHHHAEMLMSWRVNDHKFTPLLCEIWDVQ

CC(C)=CCC1=C(O)c2ccccc2C(=O)C1=O
ratio activity, negative = inhibition [1]: inconclusive: -39.1%
Potency [2]: inconclusive: 1.54 µM [falling, partial curve, poor fit]
Potency [3, 17]: inactive
Potency [4]: inconclusive: 4.87 µM [cytotoxic, single point]
Potency [5]: inconclusive: 24.2 µM [cytotoxic, partial curve, poor fit]
Potency [6]: inconclusive: 30.7 µM [falling, partial curve, poor fit]
Potency [7, 18]: inconclusive: 3.45 µM [activator, full curve]

c1ccc(C[P+](c2ccccc2)(c2ccccc2)c2ccccc2)cc1
Potency [5]: inconclusive: 48.6 µM [cytotoxic, partial curve]
Potency [7, 18]: inconclusive: 1.95 µM [inhibitor, full curve]
Potency [8]: inconclusive: 2.45 µM [cytotoxic, full curve]

OCCNCc1ccccc1
activity change, negative = inhibition [3, 17]: inconclusive: 0%
Potency [5]: inconclusive: 68.6 µM [rising, partial curve, poor fit]
Potency [6]: inactive
Potency [7, 18]: inactive

CO[C@@]12[C@H](COC(N)=O)C3=C(C(=O)C(C)=C(N)C3=O)N1C[C@@H]1N[C@@H]12
Potency [1]: inconclusive: 33.5 µM [rising, single point]
Potency [9]: inconclusive: 13.3 µM [rising, full curve]
activation [10]: inconclusive: -21.3%
Potency [3, 17]: inconclusive: 23.9 µM [rising, partial curve]
Potency [11]: inconclusive: 16.8 µM [cytotoxic, single point]
Potency [5]: inconclusive: 33.5 µM [cytotoxic, partial curve, poor fit]
Potency [7, 18]: inconclusive: 26.8 µM
Potency [8]: inactive

CCCCC(=O)O[C@]1(C(=O)CO)[C@@H](C)C[C@H]2[C@@H]3CCC4=CC(=O)C=C[C@]4(C)[C@@]3(F)[C@@H](O)C[C@@]21C
Potency [12]: inconclusive: 61.6 µM [cytotoxic, partial curve, poor fit]
Potency [10]: inactive
Potency [11]: inconclusive: 61.6 µM [cytotoxic, partial curve, poor fit]
Potency [5]: inconclusive: 6.11 µM [cytotoxic, partial curve]
Potency [6]: inconclusive: 49 µM [activator]
activation [7, 18]: inconclusive: -41%

COCCc1ccc(OCC2CO2)cc1 (stereo not drawn)
Potency [13]: inactive
Potency [5]: inactive
Potency [6]: inactive

NC(=O)N(O)[C@@H]1COc2cc(OCc3ccccc3)ccc21
Potency [13]: inactive
Potency [10]: inconclusive: 24.5 µM [rising, partial curve, poor fit]
Potency [5]: inconclusive: 48.6 µM [cytotoxic, partial curve]
Potency [6]: inconclusive: 24.5 µM
Potency [7, 18]: inconclusive: 15.5 µM [rising, partial curve]

Cc1cc(O)ccc1N
Potency [14]: inactive
Potency [12]: inconclusive: 55.3 µM [cytotoxic, single point]
Potency [15]: inconclusive: 55.3 µM [activator]
Potency [2]: inconclusive: 39.1 µM [falling, partial curve, poor fit]
activation [10]: inconclusive: -33.4% [at 81.1 µM]
Potency [3, 17]: inconclusive: 55.3 µM [rising, partial curve, poor fit]
Potency [11]: inconclusive: 62 µM [cytotoxic, single point]
Potency [5]: active: 54.8 µM
Potency [6]: inconclusive: 6.96 µM [falling, full curve]
Potency [16]: inconclusive: 30.8 µM [cytotoxic, partial curve]

CN1[C@@H]2CC(OC(=O)[C@H](CO)c3ccccc3)C[C@H]1[C@@H]1O[C@@H]12 (stereo partly drawn)
Potency [14]: inactive
Potency [1]: inactive
Potency [3, 17]: inactive
Potency [4]: inconclusive: 0.174 µM [cytotoxic, single point]
Potency [6]: inactive

Cc1ccc(O)cc1
activity change, negative = inhibition [3, 17]: inconclusive: 33.5%
activity change, negative = inhibition ([3]; at 61 µM (top of the series)): inactive: 1.43% and inactive: -2.07%
activity change, negative = inhibition ([3]; at 78.8 µM (top of the series)): inactive: 0%
Potency [7, 18]: inactive

CC(C)CCCC(=O)O
Potency [3, 17]: inconclusive: 2.75 µM [activator, partial curve, poor fit]
Potency [5]: inconclusive: 19.3 µM [cytotoxic, partial curve, poor fit]
Potency [6]: inactive

C=C[Si](OCCOC)(OCCOC)OCCOC
Potency [1]: inconclusive: 8.71 µM [rising, partial curve, poor fit]
Potency [13]: inconclusive: 0.0022 µM [rising, full curve, poor fit]
Potency [5]: inconclusive: 61.1 µM [cytotoxic, single point]
activation [7, 18]: inconclusive: 4.47%
activation ([7]; at 76.8 µM (top of the series)): inactive: 2.83%
